Experimental findings from the supplement of paper PMC11417369 are described below.

± gives the standard deviation of the averaged measurements. The list shows a part of the results.

The test system of this assay is PfAP2-EXP AP2 domain (GST-tagged). In words: gcPBM binding intensity (ln(normalized median fluorescence intensity)); higher = stronger DNA binding. In a few lines:
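The binding buffer was 1× PBS containing 1% milk, 0.2 mg/ml BSA, 0.5% salmon testes DNA and 0.03% Triton X-100. In it, GST-tagged P. falciparum DNA-binding domains expressed in E. coli were applied for 1 h to an Agilent 4 × 180k array of primer-extended double-stranded 36-bp intergenic genomic probes plus negative controls. Binding intensity, read with Alexa488 anti-GST antibody and a 488 nm scan, is the highest Masliner-normalised natural-log median intensity across replicate spots of either probe orientation.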
As for “TCATTTAAGTAGACGCGTACGGAAATTACGAATCCT [XGTACX_site144]”, the “gcPBM binding intensity (ln)” value was 8.59 ± 0.42.

Consider TTTTTTTTTTGTTGAGTGCAATTATTTGTAAGAAAA, for which the “gcPBM binding intensity (ln)” value worked out at 8.49 ± 0.3.

Take “AAATTAATATATAAAAGTACCCATATATTTAATATA [XGTACX_site3551]”: the “gcPBM binding intensity (ln)” value is 8.21 ± 0.39.

In the case of “GTCATATATATATGTACACACATATATATATTTATA [CACACA_site1459]”, the “gcPBM binding intensity (ln)” value stood at 8.47 ± 0.21.

Consider GTACGTTACATAAATGTGCACATATTATATGCGAAG, for which the “gcPBM binding intensity (ln)” value was determined as 9.19 ± 0.3.

On to “TCAAAGCACCCATACACACACATATATATATATATA [CACACA_site4317]”, for which the “gcPBM binding intensity (ln)” value was 10.3 ± 0.19.

Consider TCTCCACCTCTCTTGGTGCGTTATACCCTCGAGGCT, for which the “gcPBM binding intensity (ln)” value was found to be 9.005 ± 0.007.

With “TATAACAAAATATTCACACATATAAGTAAATAAAGG [CACACA_site5777]”, the “gcPBM binding intensity (ln)” value worked out at 8.73 ± 0.28.

Consider “AGTTTGTTTTTTTTTTTTTTTTCCTGTCACAAACAA [CACACA_negctrl_site1093]”, for which the “gcPBM binding intensity (ln)” value came out at 8.79 ± 0.53.

Consider “AAGAAAAAAATTTAATTAAATGAAATTTTTGAATTA [TGCATGCA_negctrl_site25]”, for which the “gcPBM binding intensity (ln)” value was 8.07 ± 0.4.

As to “AAGACTGCACTTTAAGCACACAAATATATTTTTTTT [CACACA_site8337]”, the “gcPBM binding intensity (ln)” value is 8.89 ± 0.26.

Take “TGATAAAATGGGGAAATTCATTATATCATATCTTGG [CACACA_negctrl_site789]”: the “gcPBM binding intensity (ln)” value worked out at 8.47 ± 0.65.

Take “TTGGATAAAAAATATGTACACACATATAGATATCTA [CACACA_site8862]”: the “gcPBM binding intensity (ln)” value is 8.48 ± 0.31.

With “ATTATATTAAAATACACACCCAAATATTAAAAAGAT [CACACA_site5613]”, the “gcPBM binding intensity (ln)” value was found to be 8.94 ± 0.62.

In the case of “GGTAATTTCCTTTTTTGTACTCATAGAAGGATAATA [XGTACX_site89]”, the “gcPBM binding intensity (ln)” value was 8.58 ± 0.4.

On to “TTTGAAATATTAAATGCATGTTAAAACATAAAAATG [TGCATGCA_site680]”, for which the “gcPBM binding intensity (ln)” value amounted to 8.69 ± 0.27.

In the case of “TTTCTTCTTCTATTGTGTACGTAAAAAAAAAAAAAA [XGTACX_site772]”, the “gcPBM binding intensity (ln)” value was 8.55 ± 0.48.

Take “TTTTGTTTAATATTCACACATATATATTTTTTATTT [CACACA_site5496]”: the “gcPBM binding intensity (ln)” value was 8.64 ± 0.38.

For CTTTTTATTTAGGAGGTGCATGTAATACGGAACATA, the “gcPBM binding intensity (ln)” value was 9.085 ± 0.035.

In the case of “ATTTGTTATATATTCTTTTATGTTAATAATTCGAAT [CACACA_negctrl_site378]”, the “gcPBM binding intensity (ln)” value was determined as 8.54 ± 0.42.

In the case of “GATCTATACATGGGGACACACATCACTCTATATTTT [CACACA_site3408]”, the “gcPBM binding intensity (ln)” value is 8.93 ± 0.42.

“AAAAAATACAAACACACACACACACCCATATATATA [CACACA_site3560]”: the “gcPBM binding intensity (ln)” value was determined as 8.71 ± 0.3.

In the case of “TATGAATAAAAAAGAAGTACAAATTATATGAACGCA [XGTACX_site3018]”, the “gcPBM binding intensity (ln)” value was determined as 9.07 ± 0.46.

“CATACTGTTATAAAATGTACGCATATACACACACAT [XGTACX_site7256]”: the “gcPBM binding intensity (ln)” value was 8.75 ± 0.37.

“TACATATTTTGTATATATTATTTATTTTATTAGTTT [XGTACX_negctrl_site85]”: the “gcPBM binding intensity (ln)” value turned out to be 8.41 ± 0.42.

With “TTCTGACTTGTTATAATTTGTATATCCGAAAAAATT [TGCATGCA_negctrl_site456]”, the “gcPBM binding intensity (ln)” value was determined as 8.39 ± 0.33.

With “ACTATTATTAAAAATTGTACTTTCTATAAATTTTTT [XGTACX_site7825]”, the “gcPBM binding intensity (ln)” value amounted to 8.57 ± 0.39.

In the case of “TTTTATCAAATATTTATTTTATACATAAATATTTAT [XGTACX_negctrl_site528]”, the “gcPBM binding intensity (ln)” value was 8.42 ± 0.4.

For “AGAAACATATGGTAGTGTACTGTAAATTTATTCTTT [XGTACX_site8602]”, the “gcPBM binding intensity (ln)” value worked out at 8.66 ± 0.47.

Turning to “ATTTTGTGTAGTGATGCATGTTATATATATATTTGA [TGCATGCA_site422]”, the “gcPBM binding intensity (ln)” value came to 8.99 ± 0.43.

“ATAACATCAGTATTATGTACATATGTAGGTAAATAA [XGTACX_site7066]”: the “gcPBM binding intensity (ln)” value is 8.82 ± 0.32.

For the sequence “CGTTATTATACACATACACACAGGAATAAAAAATTA [CACACA_site7373]”, the “gcPBM binding intensity (ln)” value is 8.64 ± 0.47.

Turning to “TTTTATTGTTTTTTTTTTTTTTCTTTTTTTTTTTTT [CACACA_negctrl_site1094]”, the “gcPBM binding intensity (ln)” value is 8.14 ± 0.61.

As for “TTTTTTTTTTTTTTTTGTACGTATCAAAAAATTTGT [XGTACX_site1023]”, the “gcPBM binding intensity (ln)” value came to 8.13 ± 0.47.

In the case of “AATCAATAAATAAAAACATGCATATATATATATATA [TGCATGCA_site438]”, the “gcPBM binding intensity (ln)” value came out at 10.3 ± 0.47.

“AAAAATAAATTTAGTTGTACTTTATTATTTTAAATA [XGTACX_site3067]”: the “gcPBM binding intensity (ln)” value is 8.32 ± 0.29.

As to “AAAATAAAAATATTCACACATACAAAAATTATACAA [CACACA_site5136]”, the “gcPBM binding intensity (ln)” value came to 8.51 ± 0.45.

“CATTAATAAAAAAAAAGTACAAAAAATATATATATT [XGTACX_site2091]”: the “gcPBM binding intensity (ln)” value was 8.72 ± 0.52.

As for “ATAATATATATATATAGTACATATATATAATATTCT [XGTACX_site2445]”, the “gcPBM binding intensity (ln)” value was determined as 8.2 ± 0.24.

In the case of “ATTTTTTTACTGTAACCATATTTTTCCCTTTTATTC [CACACA_negctrl_site1143]”, the “gcPBM binding intensity (ln)” value turned out to be 8.98 ± 0.67.

In the case of “AAGAAAAACTTTACGTGTACCAAACATCCTGCCAAC [XGTACX_site598]”, the “gcPBM binding intensity (ln)” value worked out at 8.95 ± 0.41.

As to “TATATTGATGATGATAGTACGTATGATTAGAAAAAA [XGTACX_site8989]”, the “gcPBM binding intensity (ln)” value is 8.62 ± 0.39.

In the case of “AGTGATACTAATTTTTGTACGCATAAAAGAATATTC [XGTACX_site6055]”, the “gcPBM binding intensity (ln)” value was 8.88 ± 0.36.

With “ATAGACAGCGCACAAACACACAAACACCCACCCACA [CACACA_site8043]”, the “gcPBM binding intensity (ln)” value was found to be 8.99 ± 0.67.

“TATATATATATGTGTACACAATTTATCTGTATTTAT [CACACA_site5945]”: the “gcPBM binding intensity (ln)” value worked out at 9.94 ± 0.11.
